Here are results for one molecule from article PMC9166750 (Scientific Reports, 2022).

Holding throughout (settings): both partners purified
The target in test [1] is T1, syntaxin-3b cytoplasmic domain (residues 1–264) with C-terminal Avi-tag, LE mutant (L165A, E166A) (mouse, UniProt Q64704-2 1-264, L165A | E166A, Alexa 488 (NHS ester) at the N-terminal primary amino group in the anisotropy assays; biotin (NHS-biotin) at the N-terminal primary amino group in the pull-downs).
T1 construct: syntaxin-3b (splice isoform 3b of syntaxin-3), cytoplasmic domain, residues 1-264, with L165A and E166A; Made from the syntaxin-3b construct with the QuickChange Kit; also called syntaxin-3b LE; source: E. coli BL21 (DE3*), purified (Ni-NTA, TEV cleavage, HiTrap Q); not shown: His6, N-terminal, cleaved
T1 sequence (looked up): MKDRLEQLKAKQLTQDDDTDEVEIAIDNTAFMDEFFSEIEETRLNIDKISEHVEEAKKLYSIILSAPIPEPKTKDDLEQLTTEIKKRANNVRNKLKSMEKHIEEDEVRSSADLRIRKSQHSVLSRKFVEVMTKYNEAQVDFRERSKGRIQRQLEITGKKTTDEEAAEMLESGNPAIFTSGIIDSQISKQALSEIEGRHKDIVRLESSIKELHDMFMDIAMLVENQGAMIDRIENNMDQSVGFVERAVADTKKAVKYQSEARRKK
The test is described as follows: fluorescence polarisation; bulk fluorescence anisotropy; Alexa 488-labelled syntaxin about 0.5 μM in TBS (20 mM Tris pH 7.5, 150 mM NaCl, 0.5 mM TCEP), unlabelled SNAP-25A 0-0.900 μM, about 15 min at room temperature, 96 well plate; curves fit with Hill equations to estimate Kd.

The target of test [2] is T2, syntaxin-3b cytoplasmic domain (residues 1–264) with C-terminal Avi-tag, T14E phosphomimetic mutant (mouse, UniProt Q64704-2 1-264, T14E, Alexa 488 (NHS ester) at the N-terminal primary amino group in the anisotropy assays; biotin (NHS-biotin) at the N-terminal primary amino group in the pull-downs).
T2 construct: syntaxin-3b (splice isoform 3b of syntaxin-3), cytoplasmic domain, residues 1-264, with T14E; Made from the syntaxin-3b construct with the QuickChange Kit; also called syntaxin-3b T14E; source: E. coli BL21 (DE3*), purified (Ni-NTA, TEV cleavage, HiTrap Q); not shown: His6, N-terminal, cleaved
T2 sequence (looked up): T1 sequence (looked up) with T14E, A165L, A166E
The description is as above.

In test [3] the target is T3, syntaxin-3b cytoplasmic domain (residues 1–264) with C-terminal Avi-tag, wild type (mouse, UniProt Q64704-2 1-264, Alexa 488 (NHS ester) at the N-terminal primary amino group in the anisotropy assays; biotin (NHS-biotin) at the N-terminal primary amino group in the pull-downs).
T3 construct: syntaxin-3b (splice isoform 3b of syntaxin-3), cytoplasmic domain, residues 1-264; Gene synthesized and inserted into pJ414 (ATUM); The two native cysteines lie in the transmembrane region, which the Avi-tag replaces; also called SX-3b; WT syntaxin-3b; source: E. coli BL21 (DE3*), purified (Ni-NTA, TEV cleavage, HiTrap Q); not shown: His6, N-terminal, cleaved
T3 sequence (looked up): T1 sequence (looked up) with A165L, A166E
Described as above.

Test [4] has as its target T2, syntaxin-3b cytoplasmic domain …. Nature of the test: pull-down; syntaxins biotinylated at the N-terminal amino group on neutravidin agarose beads; about 300 μg Munc18-1 incubated 1 h, washed, then 500 μg SNAP-25A 1 h at room temperature, washed with TBS; SDS-PAGE, Coomassie, Munc18-1 and SNAP-25 bands normalised to the syntaxin bands (ImageJ).

Substitutions are numbered along the chain they refer to.

B1: SNAP-25, full length (natural protein)
chain: not shown
notes: Cloned into pTEV5; also called SNAP-25A; source: E. coli BL21 (DE3*), purified (Ni-NTA, TEV cleavage, HiTrap Q); not shown: His6, N-terminal, cleaved
As for B1, the Kd (usually a measure of binding affinity in units of concentration) is 76 nM in test [1], 171 nM in test [2] and roughly 316 nM in test [3]. Further, in test [4], the “fold increase of binary t-SNARE complex formation against WT syntaxin-3b, in the presence of Munc18-1” value is roughly 3 fold.
